# Source: PubChem BioAssay (NCATS)
# “And” between values parts separate entries of the source, which are not always exact repeats. Equal entries are not always repeated. The inconclusive results got no clear call from the source; some entries with a clear call stand among them for comparison. For part of these data: Where the call is inconclusive, the potency comes from a doubtful curve fit. The source made the active and inactive calls. Calls follow the shape of the dose curve; as a rule, active = well fitted curve in the direction sought with a large enough effect; inconclusive = small, poorly fitted or top-dose-only effect, or another doubt; inactive = no such curve, though single readings can be large; an effect the other way counts as inactive or inconclusive.
# Legend:
# [1] = P-glycoprotein substrates identified in KB-8-5-11 adenocarcinoma cell line, qHTS therapeutic library screen (AID 1346987); also: nearly all actives have a fitted effect of over 65% in size
# Procedure, shortened: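 Human cervical adenocarcinoma KB-8-5-11 cells, selected in colchicine to over-express P-gp and assayed without it, were exposed for 72 h to titrated compounds. An ATP-based luminescent viability signal gave AC50.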
# [2] = Primary qHTS for inhibitors of nuclear receptor binding SET domain protein 2 (NSD2) in an isogenic RCH-ACV NSD2 p.E1099K mutant (9B) (AID 1645876); also: nearly all actives have a fitted effect of over 70% in size
# [3] = Primary qHTS for inhibitors of nuclear receptor binding SET domain protein 2 (NSD2) in an RCH-ACV wild type WT cells (2C) (AID 1645877); conditions: activity change, negative = cell killing: at 44.9 µM (top of the series); also: nearly all actives have a fitted effect of over 70% in size
# [4] = tested on: CRL-7250; assay: Cytotoxic Profiling of Annotated Libraries Using Quantitative High-Throughput Screening (AID 1296008); conditions: Five cell lines viability, CellTiter-Glo ATP luminescence, 48-72 h; max response: stronger effect = lower value; also: nearly all actives have a fitted effect of over 60% in size; as to max response: % is scaled to controls: 0 for no effect and ±100 for the full control effect
# Procedure, shortened: (§1)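 Cytotoxicity was measured as CellTiter-Glo ATP luminescence, read after 10 min at room temperature. Compound treatment of the cells lasted 48 or 72 hr at 37 degrees Celsius in a qHTS format.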
# [5] = tested on: HEK293; assay: as above; conditions: Five cell lines viability, CellTiter-Glo ATP luminescence, 48-72 h; max response: stronger effect = lower value
# Procedure, shortened: as §1
# [6] = tested on: HaCat; assay: as above; conditions: Five cell lines viability, CellTiter-Glo ATP luminescence, 48-72 h; max response: stronger effect = lower value
# Procedure, shortened: as §1
# [7] = tested on: KB-3-1; assay: as above; conditions: Five cell lines viability, CellTiter-Glo ATP luminescence, 48-72 h; max response: stronger effect = lower value
# Procedure, shortened: as §1
# [8] = tested on: SKOV3; assay: Primary qHTS to identify gynecologic anti-cancer compounds using libraries of approved drugs and bioactive compounds (AID 1345084); conditions: Gynecologic cancer cell panel viability, ATPlite luminescence, 48 h; series mostly up to 57.5 µM; also: nearly all actives have a fitted effect of over 55% in size; as to activity change, negative = cytotoxicity: % is scaled to controls: 0 for no effect and ±100 for the full control effect
# Procedure, shortened: (§2)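 Cell viability after 48 h drug treatment, ATPlite luminescence readout; five doses.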
# [9] = tested on: CAOV3; assay: as above; conditions: Gynecologic cancer cell panel viability, ATPlite luminescence, 48 h; series mostly up to 57.5 µM
# Procedure, shortened: as §2
# [10] = tested on: HeLa; assay: as above; conditions: Gynecologic cancer cell panel viability, ATPlite luminescence, 48 h; series mostly up to 57.5 µM
# Procedure, shortened: as §2
# [11] = tested on: PA-1; assay: as above; conditions: Gynecologic cancer cell panel viability, ATPlite luminescence, 48 h; series mostly up to 57.5 µM
# Procedure, shortened: as §2
# [12] = tested on: Tov112D; assay: as above; conditions: Gynecologic cancer cell panel viability, ATPlite luminescence, 48 h; activity change, negative = cytotoxicity: at 57.5 µM (top of the series)
# Procedure, shortened: as §2
# [13] = tested on: C33A; assay: as above; conditions: Gynecologic cancer cell panel viability, ATPlite luminescence, 48 h; series mostly up to 57.5 µM
# Procedure, shortened: as §2
# [14] = tested on: CASKI; assay: as above; conditions: Gynecologic cancer cell panel viability, ATPlite luminescence, 48 h; activity change, negative = cytotoxicity: at 57.5 µM (top of the series)
# Procedure, shortened: as §2
# [15] = tested on: Es-2; assay: as above; conditions: Gynecologic cancer cell panel viability, ATPlite luminescence, 48 h; series mostly up to 57.5 µM
# Procedure, shortened: as §2
# [16] = tested on: Hek293T; assay: as above; conditions: Gynecologic cancer cell panel viability, ATPlite luminescence, 48 h, control line for the selectivity index; series mostly up to 57.5 µM
# Procedure, shortened: as §2
# [17] = tested on: OV90; assay: as above; conditions: Gynecologic cancer cell panel viability, ATPlite luminescence, 48 h; series mostly up to 57.5 µM
# Procedure, shortened: as §2
# [18] = tested on: Tov-21-G; assay: as above; conditions: Gynecologic cancer cell panel viability, ATPlite luminescence, 48 h; activity change, negative = cytotoxicity: at 57.5 µM (top of the series)
# Procedure, shortened: as §2
# [19] = tested on: NIH3T3; assay: Cytotoxic Profiling of Annotated Libraries Using Quantitative High-Throughput Screening (AID 1296008); conditions: Five cell lines viability, CellTiter-Glo ATP luminescence, 48-72 h; max response: stronger effect = lower value; also: nearly all actives have a fitted effect of over 60% in size; as to max response: % is scaled to controls: 0 for no effect and ±100 for the full control effect
# Procedure, shortened: as §1
# [20] = tested on: JEG-3; assay: Primary qHTS to identify gynecologic anti-cancer compounds using libraries of approved drugs and bioactive compounds (AID 1345084); conditions: Gynecologic cancer cell panel viability, ATPlite luminescence, 48 h; series mostly up to 57.5 µM; also: nearly all actives have a fitted effect of over 55% in size; as to activity change, negative = cytotoxicity: % is scaled to controls: 0 for no effect and ±100 for the full control effect
# Procedure, shortened: as §2
# Potency is read from the fitted curve at half-maximal effect; tags tell the direction and shape of the fitted curve.
smiles,measurement,setting,value
Cc1cccc(C)c1OCc1cc(C(=O)N2CCC(c3ccncc3)CC2)no1,Potency,[1],"inconclusive: 2.31 µM [inhibitor, full curve]"
same,Potency,[2],active: 10.3 µM
same,Potency,[3],"inconclusive: 8.17 µM [inhibitor, partial curve]"
same,Potency,[4],"inconclusive: 9.2 µM [inhibitor, partial curve]"
same,Potency,[5],active: 6.51 µM
same,Potency,[6],"inconclusive: 14.6 µM [inhibitor, partial curve]"
same,Potency,[7],active: 8.2 µM
same,Potency,[8],"inconclusive: 35.5 µM [cytotoxic, single point]"
CCOC(=O)C1(CCOc2ccccc2)CCN(Cc2ccc(O)c(Cl)c2)CC1,Potency,[1],"inconclusive: 18.4 µM [inhibitor, single point]"
same,Potency,[4],"inconclusive: 29.1 µM [inhibitor, single point]"
same,Potency,[5],"inconclusive: 18.4 µM [inhibitor, single point]"
same,max response,[6],inactive: 0.37%
same,max response,[7],inactive: -15.3%
same,Potency,[9],inactive
same,Potency,[8],"inconclusive: 39.8 µM [cytotoxic, single point]"
COc1cc(-c2ccc(=O)[nH]n2)ccc1OC(F)F,Potency,[3],inactive
same,Potency,[4],active: 1.19 µM
same,Potency,[5],"inconclusive: 29.9 µM [inhibitor, single point]"
same,Potency,[6],"inconclusive: 7.5 µM [inhibitor, partial curve]"
same,Potency,[7],"inconclusive: 0.92 µM [inhibitor, full curve, poor fit]"
same,Potency,[10],"inconclusive: 39.8 µM [cytotoxic, partial curve, poor fit]"
same,Potency,[11],"inconclusive: 39.8 µM [cytotoxic, single point]"
same,Potency,[12],inactive
CS/C=C/C(=O)O[C@@H]1CCC2=CC(=O)C(=C(C)C)C[C@]2(C)[C@H]1C,Potency,[2],"inconclusive: 12.7 µM [inhibitor, partial curve]"
same,Potency,[4],"inconclusive: 5.08 µM [inhibitor, partial curve, poor fit]"
same,Potency,[5],"inconclusive: 20.2 µM [inhibitor, single point]"
same,max response,[6],inactive: -6.05%
same,Potency,[7],"inconclusive: 11.4 µM [inhibitor, partial curve, poor fit]"
same,Potency,[13],"inconclusive: 31.6 µM [cytotoxic, single point]"
same,Potency,[14],"inconclusive: 28.2 µM [rising, single point]"
same,Potency,[8],"inconclusive: 14.1 µM [rising, single point]"
CC1(CO)CCCC2(C)C1C(OC(=O)c1ccccc1)C=C1C(=O)OCC12O (stereo unspecified),Potency,[1],"inconclusive: 11.4 µM [inhibitor, single point]"
same,Potency,[2],active: 2.84 µM
same,Potency,[3],active: 1.79 µM
same,Potency,[4],"inconclusive: 14.3 µM [inhibitor, single point]"
same,Potency,[5],"inconclusive: 11.4 µM [inhibitor, single point]"
same,Potency,[6],"inconclusive: 20.2 µM [inhibitor, single point]"
same,Potency,[7],"inconclusive: 12.8 µM [inhibitor, single point]"
same,Potency,[13],"inconclusive: 28.2 µM [cytotoxic, single point]"
same,Potency,[9],"inconclusive: 20 µM [cytotoxic, single point]"
same,Potency,[15],"inconclusive: 28.2 µM [cytotoxic, single point]"
same,Potency,[16],"inconclusive: 11.2 µM [cytotoxic, single point]"
same,Potency,[17],"inconclusive: 1 µM [cytotoxic, single point]"
same,Potency,[11],"inconclusive: 28.2 µM [cytotoxic, single point]"
same,Potency,[8],"inconclusive: 11.2 µM [cytotoxic, partial curve, poor fit]"
same,Potency,[18],active: 11.2 µM
O=C(CCCCCCC(=O)Nc1cccnc1)NO,Potency,[1],active: 18.7 µM
same,Potency,[4],"inconclusive: 23.5 µM [inhibitor, single point]"
same,Potency,[5],"inconclusive: 29.6 µM [inhibitor, single point]"
same,Potency,[6],"inconclusive: 37.2 µM [inhibitor, single point]"
same,Potency,[7],active: 14.8 µM
C[C@H](NCc1ccc2c(c1)nc(NC(=O)c1ccc(-c3cn[nH]c3)s1)n2CCc1ccccc1)C(C)(C)C,Potency,[1],active: 2.35 µM
same,Potency,[4],active: 1.87 µM
same,Potency,[5],active: 0.935 µM
same,Potency,[6],active: 2.96 µM
same,Potency,[19],active: 2.64 µM
CCC(C)C(=O)OC1CC(O)C23C4OCC5(C(O)CC2C1(C)C(O)O4)C3C(=O)CC1(C)C(c2ccoc2)CC2OC215 (stereo unspecified),Potency,[1],"inconclusive: 7.96 µM [inhibitor, single point]"
same,Potency,[4],active: 3.55 µM
same,Potency,[5],active: 2.52 µM
same,Potency,[6],"inconclusive: 7.96 µM [inhibitor, single point]"
same,Potency,[7],active: 1.78 µM
same,Potency,[13],"inconclusive: 11.2 µM [cytotoxic, single point]"
same,Potency,[9],"inconclusive: 12.6 µM [cytotoxic, partial curve, poor fit]"
same,Potency,[15],"inconclusive: 8.91 µM [cytotoxic, partial curve, poor fit]"
same,Potency,[10],"inconclusive: 12.6 µM [cytotoxic, partial curve, poor fit]"
same,Potency,[16],active: 10 µM
same,Potency,[17],active: 1.78 µM
same,Potency,[11],"inconclusive: 7.08 µM [cytotoxic, partial curve, poor fit]"
same,Potency,[8],"inconclusive: 11.2 µM [cytotoxic, single point]"
same,Potency,[18],"inconclusive: 3.55 µM [cytotoxic, partial curve, poor fit]"
same,Potency,[12],active: 11.2 µM
C/C1=C/CCC2=CC(OC2=O)C(C)(C)/C=C/C1=O (stereo unspecified),Potency,[4],active: 2.31 µM
same,Potency,[5],active: 1.3 µM
same,Potency,[6],active: 2.59 µM
same,Potency,[7],"inconclusive: 7.31 µM [inhibitor, partial curve]"
same,Potency,[13],active: 10 µM
same,Potency,[9],"inconclusive: 15.8 µM [cytotoxic, partial curve, poor fit]"
same,Potency,[14],active: 6.31 µM
same,Potency,[15],active: 8.91 µM
same,Potency,[10],"inconclusive: 35.5 µM [cytotoxic, single point]"
same,Potency,[16],active: 12.6 µM
same,Potency,[20],"inconclusive: 3.98 µM [cytotoxic, single point]"
same,Potency,[17],"inconclusive: 28.2 µM [cytotoxic, single point]"
same,Potency,[11],active: 8.91 µM
same,Potency,[8],active: 12.6 µM
same,Potency,[12],active: 20 µM
CCNC(=O)Nc1ccc(-c2nc3c(c(N4CCOC[C@H]4C)n2)CCN(C2COC2)C3)cc1,Potency,[1],active: 1.84 µM
same,Potency,[4],active: 0.296 µM
same,Potency,[5],active: 0.743 µM
same,Potency,[6],"inconclusive: 2.64 µM [inhibitor, full curve]"
same,Potency,[19],active: 5.9 µM
Cc1nc(N)nc(N)c1-c1ccc(Cl)c(Cl)c1,Potency,[3],active: 0.299 µM
same,Potency,[4],"inconclusive: 0.944 µM [inhibitor, full curve]"
same,Potency,[5],active: 1.06 µM
same,Potency,[6],"inconclusive: 26.6 µM [inhibitor, single point]"
same,Potency,[19],active: 0.841 µM
same,Potency,[13],active: 0.447 µM
same,Potency,[14],active: 1.41 µM
same,Potency,[15],active: 1 µM
same,Potency,[16],active: 1.58 µM
same,Potency,[20],active: 11.2 µM
same,Potency,[17],active: 0.891 µM
C=C1C(=O)O[C@@H]2C[C@@H](C)[C@]34C[C@]5(C(=O)O[C@H]6CC(C)=C([C@H](C)CCCO)[C@H](OC(=O)C(C)CC)[C@H]65)[C@@H](C(C)=C3C[C@@H]12)[C@H]4OC(C)=O (stereo partly specified),Potency,[4],"inconclusive: 5.44 µM [inhibitor, single point]"
same,Potency,[5],"inconclusive: 4.85 µM [inhibitor, single point]"
same,Potency,[6],"inconclusive: 9.68 µM [inhibitor, single point]"
same,Potency,[7],"inconclusive: 8.62 µM [inhibitor, single point]"
same,Potency,[9],"inconclusive: 11.2 µM [cytotoxic, single point]"
same,Potency,[16],"inconclusive: 12.6 µM [cytotoxic, single point]"
same,Potency,[11],"inconclusive: 2.82 µM [cytotoxic, full curve]"
same,Potency,[8],inactive
same,Potency,[18],"inconclusive: 12.6 µM [cytotoxic, single point]"
Nc1cccc(-c2cc3c(Oc4cccc(O)c4)ncnc3[nH]2)c1,Potency,[1],"active: 20.9 µM and inconclusive: 29.1 µM [inhibitor, single point]"
same,Potency,[2],active: 1.15 µM and active: 1.05 µM
same,Potency,[4],active: 14.8 µM
same,Potency,[5],active: 20.9 µM and active: 18.4 µM
same,Potency,[6],"inconclusive: 0.0082 µM [inhibitor, full curve, poor fit]"
same,Potency,[7],"inconclusive: 37.2 µM [inhibitor, single point] and inconclusive: 29.1 µM [inhibitor, single point]"
same,Potency,[9],"inconclusive: 17.8 µM [cytotoxic, partial curve, poor fit]"
same,Potency,[14],"inconclusive: 14.1 µM [cytotoxic, partial curve, poor fit]"
same,Potency,[10],"inconclusive: 35.5 µM [cytotoxic, single point]"
same,Potency,[16],"inconclusive: 39.8 µM [cytotoxic, single point]"
same,Potency,[17],"inconclusive: 39.8 µM [cytotoxic, partial curve, poor fit]"
same,Potency,[11],"inconclusive: 8.91 µM [cytotoxic, partial curve, poor fit]"
same,Potency,[8],active: 3.98 µM
same,Potency,[18],"inconclusive: 22.4 µM [cytotoxic, partial curve, poor fit]"
same,Potency,[12],"inconclusive: 39.8 µM [cytotoxic, single point]"
